About 2,200 (0.71%) of roughly 310,000 compounds showed an effect of 50% or more. The effect is printed as a negative number. This is one part of the list.
Each compound was assayed against human ether-à-go-go-related gene (hERG) potassium channel (human, UniProt Q12809) (assay: primary screen, population patch clamp on CHO cells stably expressing hERG).
Chain of human ether-à-go-go-related gene (hERG) potassium channel (Q12809 whole entry, looked up): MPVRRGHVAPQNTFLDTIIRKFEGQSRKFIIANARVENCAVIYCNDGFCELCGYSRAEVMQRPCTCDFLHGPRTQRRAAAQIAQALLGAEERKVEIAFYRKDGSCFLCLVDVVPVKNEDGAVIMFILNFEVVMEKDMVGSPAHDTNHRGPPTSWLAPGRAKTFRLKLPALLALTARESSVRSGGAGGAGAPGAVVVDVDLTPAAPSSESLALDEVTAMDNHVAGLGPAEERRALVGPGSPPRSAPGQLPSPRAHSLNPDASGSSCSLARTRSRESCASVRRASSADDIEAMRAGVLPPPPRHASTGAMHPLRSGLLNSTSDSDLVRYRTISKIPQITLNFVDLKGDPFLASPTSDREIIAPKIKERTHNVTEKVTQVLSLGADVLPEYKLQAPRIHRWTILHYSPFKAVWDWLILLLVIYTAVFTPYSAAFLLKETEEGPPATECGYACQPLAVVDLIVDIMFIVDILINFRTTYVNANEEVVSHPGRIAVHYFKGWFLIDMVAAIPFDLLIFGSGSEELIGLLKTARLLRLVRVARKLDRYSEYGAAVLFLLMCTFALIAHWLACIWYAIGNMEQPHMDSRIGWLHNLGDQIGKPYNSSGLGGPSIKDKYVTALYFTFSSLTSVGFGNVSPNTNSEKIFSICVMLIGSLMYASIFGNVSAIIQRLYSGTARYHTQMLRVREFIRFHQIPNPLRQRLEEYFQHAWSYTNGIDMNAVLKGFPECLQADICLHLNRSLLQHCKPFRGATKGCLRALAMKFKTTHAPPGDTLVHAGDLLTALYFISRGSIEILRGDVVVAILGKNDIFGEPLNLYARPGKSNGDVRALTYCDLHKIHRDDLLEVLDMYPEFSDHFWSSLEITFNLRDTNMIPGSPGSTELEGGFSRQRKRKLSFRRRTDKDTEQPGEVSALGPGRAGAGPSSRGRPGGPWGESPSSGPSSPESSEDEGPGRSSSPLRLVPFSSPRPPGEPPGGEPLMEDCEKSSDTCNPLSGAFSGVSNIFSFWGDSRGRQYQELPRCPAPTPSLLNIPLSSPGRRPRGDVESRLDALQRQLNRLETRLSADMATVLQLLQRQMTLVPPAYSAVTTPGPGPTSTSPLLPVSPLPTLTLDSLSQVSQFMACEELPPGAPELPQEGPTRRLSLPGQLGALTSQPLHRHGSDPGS
`NC(=O)c1ccc(-n2nnnc2SCC(=O)Nc2ccccc2)cc1` was tested, and the “hERG current change (%, negative = inhibition) at 1uM” value was 17.5%. For `CC(=O)C1=C(O)C(=O)N(c2ccc(O)cc2)C1c1ccccc1` (stereo not shown), the “hERG current change (%, negative = inhibition) at 1uM” value was 13.8%. `C/C(=N\NC(=O)c1cc(O)ccc1O)c1cccc(NC(=O)c2cccc(Cl)c2)c1` was tested, and the “hERG current change (%, negative = inhibition) at 1uM” value was 16.4%. `Cc1cc(C(=O)NC(C)c2ccccc2)c2cc(F)ccc2n1` (stereo not shown) was tested, and the “hERG current change (%, negative = inhibition) at 1uM” value was 0.885%. `Oc1ccccc1CNc1ncc(Br)cc1Br` was tested, and the “hERG current change (%, negative = inhibition) at 1uM” value was 7.43%. With `O=C(NC1CCCCC1)C1CCCN1S(=O)(=O)c1ccc(F)cc1` (stereo not shown) the “hERG current change (%, negative = inhibition) at 1uM” value was 9.38%. With `O=C(O)c1cc(C2CC2)nc2ccccc12` the “hERG current change (%, negative = inhibition) at 1uM” value was 6.09%. `O=c1[nH]cccc1-c1nc2ccccc2n1Cc1ccc(Cl)cc1` was tested, and the “hERG current change (%, negative = inhibition) at 1uM” value was 5.27%. With `O=C(COC(=O)c1cc[n+]([O-])cc1)Nc1ccc([N+](=O)[O-])cc1` the “hERG current change (%, negative = inhibition) at 1uM” value was 14.1%. With `C/C=C\C=C\C(=O)Nc1cccc(C2=NOC3(C2)C[C@H](C(N)=O)N(C(=O)c2ccccc2C(=O)c2ccccc2)C3)c1` (stereo partly shown) the “hERG current change (%, negative = inhibition) at 1uM” value was -8.75%. With `O=C(COc1ccccc1)N1CCN(C(=O)Cc2ccccc2)CC1` the “hERG current change (%, negative = inhibition) at 1uM” value was 4.27%. In the case of `Cc1cc(C)cc(Oc2nc(-c3ccccc3)cc(C)c2S(C)(=O)=O)c1`, the “hERG current change (%, negative = inhibition) at 1uM” value is reported as 3.23%. `Cc1ccc(C(=O)NCc2ccccc2CN2CCCC2)cc1S(=O)(=O)N1CCOCC1` was tested, and the “hERG current change (%, negative = inhibition) at 1uM” value was -18.1%. `CC(=O)NCC(=O)NC1CCCc2c1cnn2-c1ccccc1F` (stereo not shown) was tested, and the “hERG current change (%, negative = inhibition) at 1uM” value was 15.3%. `COCCn1c(C)cc(C(=O)COc2ccc(N(C)S(=O)(=O)c3ccc(C)cc3)cc2)c1C` was tested, and the “hERG current change (%, negative = inhibition) at 1uM” value was -1.25%. For `COCCN1C(=O)N(c2ccccc2)C(=O)C1CC(=O)Nc1cc(OC)cc(OC)c1` (stereo not shown), the “hERG current change (%, negative = inhibition) at 1uM” value was 12.7%. `Cn1c(=O)cc(SCC(=O)NCCC2=CCCCC2)c2ccccc21` was tested, and the “hERG current change (%, negative = inhibition) at 1uM” value was 1.32%. With `CC1(C)CC(=O)C2=C(C1)Nc1cc3c(cc1C2c1ccc(F)cc1)OCO3` (stereo not shown) the “hERG current change (%, negative = inhibition) at 1uM” value was -37%. For `Cc1c(C#N)c(NC(=O)CCl)n(Cc2cccs2)c1C`, the “hERG current change (%, negative = inhibition) at 1uM” value was 4.25%. With `O=C(NCC(c1cccnc1)N1CCN(c2ccc(F)cc2)CC1)c1cccc(Cl)c1` (stereo not shown) the “hERG current change (%, negative = inhibition) at 1uM” value was -18.3%. `CCOC(=O)N1CCC2(CC1)NCCc1c2[nH]c2ccccc12` was tested, and the “hERG current change (%, negative = inhibition) at 1uM” value was 10.4%. In the case of `COc1cccc(CNCCO)c1OCc1ccccc1Cl.Cl`, the “hERG current change (%, negative = inhibition) at 1uM” value is reported as 5.91%. With `COc1ccc(CCNC(=O)C(C(=O)c2ccccc2)n2ccccc2=O)cc1OC` (stereo not shown) the “hERG current change (%, negative = inhibition) at 1uM” value was 0.22%. With `O=C(c1ccc(S(=O)(=O)Nc2ccccc2)cc1)N1CCOCC1` the “hERG current change (%, negative = inhibition) at 1uM” value was 9.89%. With `CC(=O)Nc1ccc(S(=O)(=O)N(Cc2cc3ccc(C)cc3[nH]c2=O)CC2CCCO2)cc1` (stereo not shown) the “hERG current change (%, negative = inhibition) at 1uM” value was 14%. For `Cc1c(NC(=O)CSCc2ccc(Br)cc2)c(=O)n(-c2ccccc2)n1C`, the “hERG current change (%, negative = inhibition) at 1uM” value was 7.74%. With `Cc1ccc(NC(=S)NCc2ccc(Cl)cc2)c(C)c1` the “hERG current change (%, negative = inhibition) at 1uM” value was 9.07%. In the case of `O=C1N(Cc2cccnc2)C[C@@H]2C[C@@H](c3ccccc3C(F)(F)F)N3CCC[C@@]123`, the “hERG current change (%, negative = inhibition) at 1uM” value is reported as 4.66%. `CC(=O)c1ccc(NC(=O)Cn2cnc(S(=O)(=O)N3CCc4ccccc43)c2)cc1` was tested, and the “hERG current change (%, negative = inhibition) at 1uM” value was 15%. With `COc1ccc(OC)c(NC(=O)CSc2nncc3ccccc23)c1` the “hERG current change (%, negative = inhibition) at 1uM” value was 13.1%. In the case of `Cc1ccccc1C(=O)Nn1cnnc1`, the “hERG current change (%, negative = inhibition) at 1uM” value is reported as 12.2%. `CCCC(C(=O)NC1CCCC1)N(Cc1ccc2c(c1)OCO2)C(=O)c1snc(C(N)=O)c1N` (stereo not shown) was tested, and the “hERG current change (%, negative = inhibition) at 1uM” value was 9.52%. `Cc1c(C)c2cc(Cl)c(OCC(=O)NC3CC(C)(C)NC(C)(C)C3)cc2oc1=O` was tested, and the “hERG current change (%, negative = inhibition) at 1uM” value was 6.59%. In the case of `COC(=O)CCCC1=CC2=C(c3ccccc3)C(=O)C(C)(OC(=O)C3CCCC3)C(=O)C2=CN1c1ccc(OC)cc1` (stereo not shown), the “hERG current change (%, negative = inhibition) at 1uM” value is reported as -3.18%. With `COc1ccc(C(C(=O)NC2CCCC2)N(C(=O)c2ccco2)c2ccccc2C(C)=O)cc1OC` (stereo not shown) the “hERG current change (%, negative = inhibition) at 1uM” value was 7.35%. `O=C1c2cccc3c([N+](=O)[O-])ccc(c23)C(=O)N1c1ccccn1` was tested, and the “hERG current change (%, negative = inhibition) at 1uM” value was 10.6%. With `CCCCNC(=O)c1cn(CC(C)C)c(=O)c2c1c1ccccc1n2C` the “hERG current change (%, negative = inhibition) at 1uM” value was 15.7%. With `Cc1ccc(S(=O)(=O)N2CCN(C)CC2)c(C)c1N(C)S(=O)(=O)c1ccc(Cl)cc1` the “hERG current change (%, negative = inhibition) at 1uM” value was -33.3%. With `COC(=O)CCC(=O)c1oc2ccccc2c1NC(=O)CCCN1C(=O)c2ccccc2C1=O` the “hERG current change (%, negative = inhibition) at 1uM” value was 4.94%. With `Cc1cc(C)c(NC(=O)C2CCCN2C(=O)NC2CCCCC2)c(C)c1` (stereo not shown) the “hERG current change (%, negative = inhibition) at 1uM” value was 2%. In the case of `Cc1ccc2oc(=O)c(/C=C(\O)C(C)(C)C)nc2c1`, the “hERG current change (%, negative = inhibition) at 1uM” value is reported as 11.6%. With `Cc1ccc(NC2CCCN(C(=O)c3cccs3)C2)cc1C` (stereo not shown) the “hERG current change (%, negative = inhibition) at 1uM” value was 11.4%. With `COC(=O)CN1C(=O)[C@H]2[C@@H](C3CC3)N3C(=O)CN(CCO)C(=O)[C@@]3(Cc3ccccc3)[C@H]2C1=O` the “hERG current change (%, negative = inhibition) at 1uM” value was 9.59%.

Source: article PMC4336329 (PLoS ONE, 2015)
